Assay results from the supplement of paper PMC8728848.
The other results are listed elsewhere or left out.

How the values were obtained:
Experiment in all cases: glycan array binding signal (z-score within array); higher = stronger binding
Conditions in all cases: glycan notation: IUPAC condensed, linker removed
Gal6S(b1-4)Glc = biological target: Gal6S(b1-4)Glc
In short: (§1)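 Glycan array data came from 3228 arrays in the Consortium for Functional Glycomics database, and only arrays with an available protein sequence were kept. Glycan names were put into IUPAC-condensed notation, and columns mapping to the same glycan were averaged. The binding signal is a within-array Z-score, averaged across arrays of one protein sequence run at different concentrations or buffers and across linkers. A negative Z-score can be read as non-binding.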

Gal6S(b1-4)Glc6S = biological target: Gal6S(b1-4)Glc6S
In short: as §1

Gal6S(b1-4)GlcNAc = biological target: Gal6S(b1-4)GlcNAc
In short: as §1

Gal6S(b1-4)GlcNAc6S = biological target: Gal6S(b1-4)GlcNAc6S
In short: as §1

GalNAc(a1-3)Gal = biological target: GalNAc(a1-3)Gal
In short: as §1

GalNAc(a1-3)GalNAc = biological target: GalNAc(a1-3)GalNAc
In short: as §1

[1] = biological target: GalNAc(a1-3)GalNAc(b1-3)Gal(a1-4)Gal(b1-4)Glc
In short: as §1

[2] = biological target: GalNAc(a1-3)GalNAc(b1-3)Gal(a1-4)Gal(b1-4)GlcNAc
In short: as §1

GalNAc(b1-3)Gal = biological target: GalNAc(b1-3)Gal
In short: as §1

[3] = biological target: GalNAc(b1-3)Gal(a1-4)Gal(b1-4)GlcNAc
In short: as §1

[4] = biological target: GalNAc(b1-3)Gal(a1-4)Gal(b1-4)GlcNAc(b1-3)Gal(b1-4)Glc
In short: as §1

[5] = biological target: GalNAc(b1-3)Gal(a1-6)Gal(b1-4)Glc
In short: as §1

GalNAc(b1-3)GalNAc = biological target: GalNAc(b1-3)GalNAc
In short: as §1

GalNAc(b1-3)GlcNAc = biological target: GalNAc(b1-3)GlcNAc
In short: as §1

GalNAc(b1-4)Gal(b1-4)Glc = biological target: GalNAc(b1-4)Gal(b1-4)Glc
In short: as §1

GalNAc(b1-4)GlcNAc = biological target: GalNAc(b1-4)GlcNAc
In short: as §1

[6] = biological target: GalNAc(b1-4)GlcNAc(b1-2)Man
In short: as §1

[7] = biological target: GalNAc(b1-4)GlcNAc(b1-2)Man(a1-3)[GalNAc(b1-4)GlcNAc(b1-2)Man(a1-6)]Man(b1-4)GlcNAc(b1-4)GlcNAc
In short: as §1

[8] = biological target: GalNAc(b1-4)GlcNAc(b1-3)GalNAc(b1-4)GlcNAc
In short: as §1

GalNAc(b1-4)GlcNAc6S = biological target: GalNAc(b1-4)GlcNAc6S
In short: as §1

GalNAc(b1-6)GalNAc = biological target: GalNAc(b1-6)GalNAc
In short: as §1

GalNAc3S(b1-4)GlcNAc = biological target: GalNAc3S(b1-4)GlcNAc
In short: as §1

GalNAc3S(b1-4)GlcNAc3S = biological target: GalNAc3S(b1-4)GlcNAc3S
In short: as §1

[9] = biological target: GalNAc3S(b1-4)[Fuc(a1-3)]GlcNAc
In short: as §1

GalNAc4S6S(b1-4)GlcNAc = biological target: GalNAc4S6S(b1-4)GlcNAc
In short: as §1

GalNAc6S(b1-4)GlcNAc = biological target: GalNAc6S(b1-4)GlcNAc
In short: as §1

Glc(a1-4)Glc = biological target: Glc(a1-4)Glc
In short: as §1

[10] = biological target: Glc(a1-4)Glc(a1-4)Glc(a1-4)Glc
In short: as §1

Glc(a1-6)Glc(a1-6)Glc = biological target: Glc(a1-6)Glc(a1-6)Glc
In short: as §1

[11] = biological target: Glc(a1-6)Glc(a1-6)Glc(a1-6)Glc
In short: as §1

Glc(b1-4)Glc = biological target: Glc(b1-4)Glc
In short: as §1

Glc(b1-6)Glc = biological target: Glc(b1-6)Glc
In short: as §1

GlcA(b1-3)Gal = biological target: GlcA(b1-3)Gal
In short: as §1

GlcA(b1-3)GlcNAc = biological target: GlcA(b1-3)GlcNAc
In short: as §1

GlcA(b1-6)Gal = biological target: GlcA(b1-6)Gal
In short: as §1

[12] = biological target: GlcA3S(b1-3)Gal(b1-4)GlcNAc(b1-2)Man
In short: as §1

[13] = biological target: GlcA3S(b1-3)Gal(b1-4)GlcNAc(b1-3)Gal(b1-4)Glc
In short: as §1

B1: DC-Sign (Homo sapiens), Q9NNX6 (protein)
chain: MSDSKEPRLQQLGLLEEEQLRGLGFRQTRGYKSLAGCLGHGPLVLQLLSFTLLAGLLVQVSKVPSSISQEQSRQDAIYQNLTQLKAAVGELSEKSKLQEIYQELTQLKAAVGELPEKSKLQEIYQELTRLKAAVGELPEKSKLQEIYQELTWLKAAVGELPEKSKMQEIYQELTRLKAAVGELPEKSKQQEIYQELTRLKAAVGELPEKSKQQEIYQELTRLKAAVGELPEKSKQQEIYQELTQLKAAVERLCHPCPWEWTFFQGNCYFMSNSQRNWHDSITACKEVGAQLVVIKSAEEQNFLQLQSSRSNRFTWMGLSDLNQEGTWQWVDGSPLLPSFKQYWNRGEPNNVGEEDCAEFSGNGWNDDKCNLAKFWICKKSAASCSRDEEQFLSPAPATPNPPPA
- glycan array binding signal (z-score) (Gal6S(b1-4)Glc): -0.17
- glycan array binding signal (z-score) (Gal6S(b1-4)Glc6S): -0.174
- glycan array binding signal (z-score) (Gal6S(b1-4)GlcNAc): -0.101
- glycan array binding signal (z-score) (Gal6S(b1-4)GlcNAc6S): -0.133
- glycan array binding signal (z-score) (GalNAc(a1-3)Gal): -0.158
- glycan array binding signal (z-score) (GalNAc(a1-3)GalNAc): -0.193
- glycan array binding signal (z-score) [1]: -0.133
- glycan array binding signal (z-score) [2]: -0.144
- glycan array binding signal (z-score) (GalNAc(b1-3)Gal): -0.158
- glycan array binding signal (z-score) [3]: -0.153
- glycan array binding signal (z-score) [4]: -0.17
- glycan array binding signal (z-score) [5]: -0.061
- glycan array binding signal (z-score) (GalNAc(b1-3)GalNAc): -0.179
- glycan array binding signal (z-score) (GalNAc(b1-3)GlcNAc): -0.105
- glycan array binding signal (z-score) (GalNAc(b1-4)Gal(b1-4)Glc): -0.131
- glycan array binding signal (z-score) (GalNAc(b1-4)GlcNAc): -0.059
- glycan array binding signal (z-score) [6]: -0.17
- glycan array binding signal (z-score) [7]: -0.179
- glycan array binding signal (z-score) [8]: -0.064
- glycan array binding signal (z-score) (GalNAc(b1-4)GlcNAc6S): -0.133
- glycan array binding signal (z-score) (GalNAc(b1-6)GalNAc): -0.17
- glycan array binding signal (z-score) (GalNAc3S(b1-4)GlcNAc): -0.013
- glycan array binding signal (z-score) (GalNAc3S(b1-4)GlcNAc3S): -0.101
- glycan array binding signal (z-score) [9]: -0.158
- glycan array binding signal (z-score) (GalNAc4S6S(b1-4)GlcNAc): -0.16
- glycan array binding signal (z-score) (GalNAc6S(b1-4)GlcNAc): -0.164
- glycan array binding signal (z-score) (Glc(a1-4)Glc): -0.193
- glycan array binding signal (z-score) [10]: -0.18
- glycan array binding signal (z-score) (Glc(a1-6)Glc(a1-6)Glc): -0.156
- glycan array binding signal (z-score) [11]: -0.146
- glycan array binding signal (z-score) (Glc(b1-4)Glc): -0.193
- glycan array binding signal (z-score) (Glc(b1-6)Glc): -0.191
- glycan array binding signal (z-score) (GlcA(b1-3)Gal): -0.193
- glycan array binding signal (z-score) (GlcA(b1-3)GlcNAc): -0.186
- glycan array binding signal (z-score) (GlcA(b1-6)Gal): -0.184
- glycan array binding signal (z-score) [12]: -0.189
- glycan array binding signal (z-score) [13]: -0.201
